# In PMC6919601, “Identification of Plasmodium dipeptidyl aminopeptidase allosteric inhibitors by high throughput screening” (PLoS ONE, 2019):
# The campaign covered roughly 110,000 compounds. About 230 (0.21%) showed an effect of 50% or more. This is one part of the list.
# Target: DPAP1 (Plasmodium falciparum, UniProt Q8IIJ9)
# Test: primary screen, percent inhibition; read by cleavage of a fluorogenic dipeptide substrate; higher = more effect of the substance
# Design: species or system P. falciparum D10 trophozoite lysates; single well
# Method: HTS was performed in black 384-well plates. The first and last two columns of each plate contained our negative (DMSO) and positive (10 μM JCP410) controls, and the 20 central columns the test compounds at 10 μM. Compounds were first diluted 50-fold into assay buffer (50 mM sodium acetate, 5 mM MgCl2, 10 mM β-mercaptoethanol, and 0.1% CHAPS, pH 5.5) from a 10 mM DMSO stock plates. One microliter of this 200 μM intermediate stock plate was dispensed into the assay plate. […] After 30 min, the reaction was quenched with 20 μL of 0.5 M acetic acid, and the fluorescent intensity measured at 523 nm (λex = 492 nm) using an Analyst HT multimode plate reader (Molecular Devices).
# 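Also: 30 min substrate incubation versus DMSO and 10 µM JCP410 controls.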
# Sequence of DPAP1 (Q8IIJ9 whole entry, looked up): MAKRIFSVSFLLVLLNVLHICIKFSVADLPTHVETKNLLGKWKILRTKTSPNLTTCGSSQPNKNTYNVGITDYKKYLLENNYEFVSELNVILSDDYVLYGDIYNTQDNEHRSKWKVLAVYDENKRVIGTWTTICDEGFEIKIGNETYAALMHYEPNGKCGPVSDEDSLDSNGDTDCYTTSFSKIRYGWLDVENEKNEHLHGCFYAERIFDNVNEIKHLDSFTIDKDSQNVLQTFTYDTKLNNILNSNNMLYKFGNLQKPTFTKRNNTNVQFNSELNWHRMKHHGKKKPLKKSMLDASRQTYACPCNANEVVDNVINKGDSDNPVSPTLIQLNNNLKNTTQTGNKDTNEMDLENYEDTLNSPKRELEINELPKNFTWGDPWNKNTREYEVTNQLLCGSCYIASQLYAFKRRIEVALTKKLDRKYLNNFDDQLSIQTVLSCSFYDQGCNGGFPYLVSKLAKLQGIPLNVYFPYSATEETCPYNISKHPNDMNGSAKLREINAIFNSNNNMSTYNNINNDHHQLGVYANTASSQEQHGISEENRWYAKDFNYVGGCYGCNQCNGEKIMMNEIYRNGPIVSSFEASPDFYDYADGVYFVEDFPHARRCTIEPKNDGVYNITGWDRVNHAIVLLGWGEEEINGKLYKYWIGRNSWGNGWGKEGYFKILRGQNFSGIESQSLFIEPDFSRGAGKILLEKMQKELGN
row,Compound,% Inhibition @ 10 uM [%]
1,O=C(Cc1ncc(-c2ccccc2)cn1)c1ccccc1,0.035
2,Cc1cc(Br)ccc1NC(=O)c1ccc(Br)cc1,1.41
3,O=C(c1ccc(CSc2nc3ccncc3[nH]2)cc1)N1CCCCCC1,0.137
4,CCOc1cc(C2C(C#N)=C(N)Oc3[nH]nc(C)c32)ccc1OC(F)F (stereo not shown),0.851
5,COc1ccc(C2C3=C(O)CCCC3=Nc3ncnn32)c(OC)c1OC (stereo not shown),7.63
6,CC1CCN(c2nc3ccccc3c3nc(-c4cccnc4)nn23)CC1,-0.692
7,O=C(CN1C(=O)S/C(=C\c2ccccn2)C1=O)N1CCOCC1,0.931
8,O=C(Nc1ccccc1O)c1ccc2c(c1)C(=O)N(Cc1cccnc1)C2=O,-1.22
9,O=C(O)c1ccc(CN2CCN(c3ccc(F)cc3)CC2)cc1,-2.81
10,CCc1c(C)c2ccc3c(c2oc1=O)CN(Cc1cccc(OC)c1)CO3,1.6
11,CCOC(=O)NC(=O)CSc1nc(C(C)(C)C)cc(C(F)(F)F)c1C#N,0.726
12,COc1ccc(C(O)Cn2c(=N)n(CCN3CCCCC3)c3ccccc32)cc1 (stereo not shown),-2.14
13,Fc1ccc(CN2CCN(c3cccc(Cl)c3)CC2)cc1Br,3.1
14,CC(C)CCNC(=O)c1cc2c(s1)-c1ccccc1S(=O)(=O)C2,2.84
15,O=C(c1nn2c(c1Cl)NC(c1ccccc1)CC2C(F)(F)F)N1CCN2CCCC2C1 (stereo not shown),-0.725
16,C=CCNc1ccc(-c2ccccc2)cc1,6.69
17,Cc1cccc(NC(=O)CSc2nc3cc(C)ccc3[nH]2)c1,3.81
18,CCOC(=O)c1c(NC(=O)CNCCC(C)C)sc2c1CCCC2,-1.45
19,COc1ccc(N(CN2C(=O)c3ccccc3C2=O)C(=O)c2cccc(OC)c2)cc1,1.42
20,CC1CCN(Cc2c(O)ccc3ccccc23)CC1,-3.63
21,O=C(O)c1ccccc1S(=O)CCO (stereo not shown),3.16
22,CN1CCN(CCCNC(=O)c2cc(-c3cccnc3)nc3ccccc23)CC1,1.16
23,CC(=O)N1CC[C@@]2(O)CCCC[C@@H]2[C@H]1c1cccc([N+](=O)[O-])c1,0.98
24,Cc1cc(C)c(NC(=O)CCCC(=O)O)c(C)c1,-2.55
25,CCOC(=O)c1c(N)sc(C(C)=O)c1C,1.42

row,Compound,% Inhibition @ 10 uM [%]
1,Cc1onc(-c2ccccc2Cl)c1C(=O)Nc1cccc(C(F)(F)F)c1,2.78
2,CCCOc1ccc(C2c3c(-c4ccccc4O)n[nH]c3C(=O)N2CCO)cc1OCC (stereo not shown),-6.85
3,COc1cc(NC(=O)C2CCN(c3cc(C)nc4c(-c5ccc(Cl)cc5)c(C)nn34)CC2)ncn1,-0.138
4,Cc1cc(Cl)ccc1OCC(=O)Nc1ccc(C#N)cc1,-0.173
5,Cc1ccccc1NC(=O)CSc1ccc(Br)cc1,-0.413
6,CCOC(=O)c1ccc2c(c1)c1c3n2CCNC3CCC1 (stereo not shown),-8.11
7,CC(=O)Nc1ccc(/N=C/c2c(C)nn(-c3ccc(Br)cc3)c2O)cc1,3.65
8,COc1ccccc1C1C(C(=O)Nc2cccnc2)=C(C)Nc2nc(SCc3ccccc3)nn21 (stereo not shown),-0.363
9,O=C(Nc1cc(Cl)c(O)c(Cl)c1)c1ccccc1F,3.91
10,COc1ccc(C2CC(c3ccccc3)=NN2C(=O)CCCC(=O)O)cc1OC (stereo not shown),-5.31
11,CC(=O)c1ccc(OCCCCCOc2ccc(C(C)=O)cc2)cc1,-1.92
12,CN(C)CCNc1cc(-c2cccnc2)nc2ccccc12,1.38
13,CS(=O)(=O)N(CC(=O)N1CCN(c2ccccc2)CC1)c1cc(C(F)(F)F)ccc1Cl,-0.992
14,Cc1ccc2oc(=O)c3cnn(CC(=O)N(Cc4ccco4)C4CCCCC4)c3c2c1,-1.7
15,Cc1ccnc(NC(=O)C2CCCN(S(=O)(=O)c3ccc4[nH]c5c(c4c3)CCCCC5)C2)c1 (stereo not shown),-6.26
16,Cc1cc(C)c2nc(N3CCC(C(=O)NC4CCCCC4C)CC3)sc2c1 (stereo not shown),-1.58
17,O=C(COc1ccc(Br)cc1)Nc1ccc(OC(F)F)cc1,0.873
18,Cc1nc2c(-c3ccccc3)c(C)nn2c(C)c1CC(=O)N1CC(C)CC(C)C1 (stereo not shown),-6.09
19,N=C1/C(=C\c2ccc(OCc3ccccc3F)cc2)C(=O)N=C2SC(N3CCOCC3)=NN12,-1.66
20,CCN(CC)c1ccc([N+](=O)[O-])c2nonc12,0.878
21,O=C1c2oc3ccccc3c(=O)c2C(c2ccc(Cl)cc2)N1c1nccs1 (stereo not shown),-5.35
22,CCOC(=O)c1c(NC(=O)COCc2cc(-c3ccc4c(c3)OCO4)on2)sc(C)c1C,0.56
23,CN(C)CCCN1C(=O)C(O)=C(C(=O)c2ccc(F)cc2)C1c1ccccc1 (stereo not shown),1.17
24,O=C(/C=C/c1ccc(F)cc1)NC(=S)N1CCOCC1,0.0345
25,COc1cc(/C=C2/NC(=O)N(Cc3ccc(C)cc3)C2=O)ccc1OCC(=O)O,6.96

row,Compound,% Inhibition @ 10 uM [%]
1,COc1cc(OC)c(C2Nc3cccc4cccc(c34)N2)cc1OC,-0.305
2,N#C/C(=C\c1c(Oc2ccccc2Cl)nc2ccccn2c1=O)C(=O)NCc1ccccc1,-1.86
3,O=C(O)/C=C/c1cccc(NS(=O)(=O)c2ccccc2)c1,-6.29
4,CC(C)CCNC(=O)Cn1c(SCc2cccc(C(F)(F)F)c2)nc2ccncc21,1.03
5,Cc1ccc(CSCCNC(=O)CN2C(=O)c3cccc4cccc2c34)cc1,3.05
6,COCc1cc(C)nc2oc(C(=O)c3ccccc3)c(N)c12,-0.305
7,NC1=NC(c2c[nH]nc2-c2cccc(F)c2)n2c(nc3ccccc32)N1 (stereo not shown),3.66
8,CCOC(=O)N1CCC(NCc2c(C(=O)O)c(C)n(Cc3ccccc3F)c2C)CC1,-9.31
9,CC(=O)c1ccc(NC(=O)COc2ccc(Cl)cc2Cl)cc1,0.968
10,Cc1cccc(NC(=O)c2sc3nc(C)cc(C(F)(F)F)c3c2N)n1,-6.62
11,CCOC(=O)N1CCN(CC2CC=CCC2)CC1 (stereo not shown),-3.57
12,O=S(=O)(Nc1cccc2c1CCCC2)c1ccc(Cl)cc1,-0.636
13,NS(=O)(=O)c1ccc(NC(=O)c2cccc(Br)c2)cc1,-1.98
14,CCn1c(CN2CC(C)CC(C)C2)nc2c1c(=O)n(C)c(=O)n2C (stereo not shown),6.08
15,Cc1nn(C(=O)CN2C(=O)c3ccccc3C2=O)c(C)c1Br,0.146
16,CN(C)CCOc1ccccc1C1NCCc2c1[nH]c1ccccc21 (stereo not shown),-1.43
17,COc1ccc(C(=O)Nc2ccccc2Br)c(OC)c1,3.1
18,Cc1ccc(S(=O)(=O)/N=C(/NCc2ccc(Cl)cc2)Nc2nc(C)cc(C)n2)cc1,3.87
19,CC(CNC(=O)c1nnc(-c2ccc3c(c2)OCO3)o1)c1ccccc1 (stereo not shown),3.98
20,CCC1(C)CC(CCNCc2ccccc2O)(c2ccccc2OC)CCO1 (stereo not shown),3.16
21,Cc1cc(/C=C2\SC(Nc3ccc(F)cc3)=NC2=O)c(C)n1-c1ccc(S(N)(=O)=O)cc1,12.7
22,CC(C)(C)OC(=O)/N=C(\N)n1cccn1,-4.11
23,CC(C)N(C(=O)c1cccs1)C(C)C,1.41
24,Cc1ccc2c(c1)-c1c(cnn1CC(=O)N1CCCC1)CO2,-11.2
25,COc1ccc(C2CC(c3ccc(Cl)cc3Cl)Nc3nc(N)nn32)cc1 (stereo not shown),-1.86

row,Compound,% Inhibition @ 10 uM [%]
1,Cc1ccc(NC(=O)C(C)Oc2ccccc2)cc1O (stereo not shown),-2.65
2,N#CC1=C(N)OC2=C(C(=O)CCC2)C1c1cc(Cl)ccc1[N+](=O)[O-] (stereo not shown),4.38
3,COc1ccc(S(=O)(=O)N(C)CC(=O)NCc2ccncc2)cc1OC,2.49
4,CCCN1C(=O)/C(=C\c2cccnc2)S/C1=N/c1ccccc1,-5.49
5,COc1cc2nc(Cl)nc(N)c2cc1OC,-0.178
6,CCCCNC(=O)Cn1nc(C)c2sc3ccccc3c2c1=O,-0.542
7,Cc1ccc(-n2nc3c(N4CCCC(C(=O)NCc5cccnc5)C4)nnc(C)c3c2C)cc1 (stereo not shown),-3.8
8,CCOC(=O)C(C#N)c1ccccn1 (stereo not shown),-5.11
9,COc1ccc(S(=O)(=O)N(CC(=O)NCc2ccccc2)c2ccccc2)cc1,2.02
10,Cc1ccc(C(=O)NCc2ccc(F)cc2)s1,2.09
11,O=C(Nc1ccc2[nH]c(O)nc2c1)c1cccnc1,5
12,COC(=O)c1ccc(C2C3=C(O)CCCC3=Nc3ncnn32)cc1 (stereo not shown),-5.19
13,CCOC(=O)c1c(NC(=O)C2(C)Cc3ccccc3C(=O)O2)sc2c1CCC(C)C2 (stereo not shown),-2.45
14,COCCCNC(=O)/C(C#N)=C/c1c(Oc2ccccc2)nc2ccccn2c1=O,1.19
15,Nc1ccc(S(=O)(=O)N2CCC(C(=O)NC3CCCCC3)CC2)cn1,3.77
16,Cc1cc(-c2ccc(C)o2)c(C#N)c(SCC(N)=O)n1,-1.97
17,CCC(C)NC(=O)CCCn1nc(C)c2c(C)n(-c3ccc(C)cc3)nc2c1=O (stereo not shown),0.756
18,Cc1cc(C)n2nc(SCc3cccc(Cl)c3)nc2n1,2.9
19,CCCO/C(O)=C1\C(C)=NC2=C(C(=O)CC(C)(C)C2)C1c1cccc(F)c1 (stereo not shown),-4.75
20,O=C(O)c1cccnc1SCc1cccc(Br)c1,1.42
21,O=C(O)CC12CC3CC(C1)CC(n1ncc(NCC4CCCO4)c(Cl)c1=O)(C3)C2 (stereo not shown),3.32
22,COc1ccc(NC(=O)c2ccc(OC(F)F)c(OC)c2)cc1Cl,0.13
23,OCCN1CCN(CCc2c3c(cc4c2CCC4)CCC3)CC1,1.19
24,CC(C)CCNC(=O)C1CCC(C/N=c2/c(N3CCCC3)c(O)c2=O)CC1 (stereo not shown),-0.447
25,CC(C)Cc1cc(C(=O)NCc2cccnc2)no1,1.74
